Data from the supplement of paper PMC12217912.
Some of the results follow. Sequences were assembled here from the parent chain. Inactive controls read about 0.05.

B1: TEV protease; numbered along this chain (parent)
chain: MGESLFKGPRDYNPISSSICHLTNESDGHTTSLYGIGFGPFIITNKHLFRRNNGTLVVQSLHGVFKVKDTTTLQQHLVDGRDMIIIRMPKDFPPFPQKLKFREPQREERICLVTTNFQTKSMSSMVSDTSCTFPSGDGIFWKHWIQTKDGQCGSPLVSTRDGFIVGIHSASNFTNTNNYFTSVPKNFMELLTNQEAQQWVSGWRLNADSVLWGGHKVFMVKPEEPFQPVKEATQL

Variants of: B1
Test: raw area under fraction-flipped curve 0-4 h after induction (AUC4h, not background-subtracted), DNA-recorder readout of cleavage of the substrate (dimensionless); higher = more cleavage of the substrate by the protease variant
Details: temperature: 34 °C; time window: 0-4 h after rhamnose induction
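Further: Bxb1 expression induced with 0.2% (w/v) L-rhamnose at OD600 near 0.5, cultures sampled hourly, flipped fraction per protease–substrate barcode pair counted by paired-end Illumina sequencing.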

| Variant | area with substrate ENLYFCS | area with substrate ENLYFDS | area with substrate ENLYFES | area with substrate ENLYFFS | area with substrate ENLYFHS | area with substrate ENLYFIS | area with substrate ENLYFPS | area with substrate ENLYFTS | area with substrate ENLYFVS | area with substrate ENLYFWS | area with substrate ENLYFKS | area with substrate ENLYFLS | area with substrate ENLYFMS | area with substrate ENLYFNS | area with substrate ENLYFSS | area with substrate ENLYFYS | area with substrate ENLYFAS | area with substrate ENLYFGS | area with substrate ENLYFRS |
| --- | --- | --- | --- | --- | --- | --- | --- | --- | --- | --- | --- | --- | --- | --- | --- | --- | --- | --- | --- |
| R51K | 0.0344 | 0.0482 | 0.0549 | 0.0732 | 0.061 | 0.0551 | 0.0576 | 0.0542 | 0.0454 | 0.0683 | – | – | – | – | – | – | – | – | – |
| P40Y | 0.0771 | – | 0.0635 | 0.0866 | 0.0506 | 0.0546 | 0.0643 | – | 0.0949 | 0.0557 | 0.0591 | 0.0595 | 0.0634 | 0.0588 | 0.053 | 0.056 | – | – | – |
| S209F | 0.068 | 0.062 | 0.0566 | – | 0.0694 | 0.0517 | 0.0644 | 0.0508 | 0.0516 | 0.0565 | 0.0635 | – | 0.065 | 0.0731 | – | 0.0638 | 0.0576 | 0.0424 | – |
| T55F | 0.0553 | – | – | 0.0651 | – | 0.0563 | 0.048 | – | 0.06 | – | 0.06 | – | 0.064 | 0.04 | 0.0582 | 0.0528 | – | 0.0641 | 0.0539 |
| I19N | 0.0132 | – | 0.0622 | 0.0566 | 0.0208 | 0.046 | 0.0521 | – | 0.0489 | – | – | 0.0654 | 0.0555 | 0.0784 | 0.0503 | 0.0471 | – | 0.0638 | 0.0559 |
| I19S | 0.0535 | – | 0.0652 | 0.0503 | – | 0.0827 | 0.0544 | 0.0523 | – | – | – | – | 0.0572 | – | – | – | – | – | – |
| N52K | 0.0616 | – | 0.0578 | 0.0636 | – | 0.0623 | 0.059 | – | – | 0.0666 | 0.0514 | – | 0.0571 | 0.0732 | 0.0675 | – | – | – | 0.0627 |
| N52D | 0.0558 | – | 0.0723 | 0.0707 | – | 0.0546 | 0.0588 | 0.0747 | 0.0429 | – | 0.0577 | 0.0485 | 0.0668 | 0.065 | 0.0877 | 0.0584 | – | – | 0.0498 |
| F226I | – | – | – | 0.0769 | 0.0582 | 0.0707 | 0.065 | 0.037 | 0.0496 | – | 0.0767 | 0.0531 | 0.0687 | 0.0652 | – | 0.0476 | 0.0204 | – | – |
| V229G | – | – | 0.0673 | 0.0812 | 0.0619 | 0.0536 | 0.0533 | 0.0559 | 0.0619 | 0.0569 | 0.0498 | 0.0585 | 0.0704 | 0.0737 | – | – | 0.0562 | – | 0.0632 |
| V229M | 0.0598 | 0.0593 | 0.0648 | 0.054 | – | 0.0413 | 0.0756 | – | – | – | 0.0615 | 0.0533 | 0.0749 | 0.07 | – | 0.0599 | 0.058 | – | 0.0598 |
| Q234L | 0.0514 | – | 0.0547 | 0.0662 | – | 0.0667 | 0.0653 | 0.0605 | 0.0605 | – | – | – | – | 0.0631 | 0.0575 | – | 0.0633 | – | 0.057 |
| F6Q | 0.0718 | – | 0.052 | 0.06 | 0.0592 | 0.0454 | – | – | 0.0434 | 0.0592 | – | – | 0.0805 | – | – | 0.0581 | – | – | – |
| E223H | 0.0627 | – | 0.0677 | 0.0731 | 0.0607 | 0.0513 | – | 0.059 | – | 0.0702 | 0.0666 | – | 0.0829 | 0.0641 | 0.0591 | 0.064 | 0.0569 | – | 0.0672 |
| E223M | – | 0.0651 | 0.0676 | – | – | 0.0532 | – | – | – | 0.0417 | 0.0626 | 0.0589 | 0.0675 | 0.0445 | 0.0442 | 0.0652 | 0.0563 | – | – |
| G213L | 0.0208 | – | – | 0.0652 | 0.0755 | 0.0534 | 0.057 | – | 0.0648 | 0.0459 | – | – | 0.0593 | 0.0509 | 0.058 | 0.0511 | 0.0643 | – | – |
| G39T | 0.044 | – | 0.0409 | 0.0645 | – | 0.0396 | – | – | 0.0274 | 0.0426 | – | – | 0.0254 | – | 0.0444 | – | – | 0.0465 | 0.0557 |
| G39H | 0.0382 | – | 0.0575 | 0.0704 | 0.0533 | 0.0436 | 0.0392 | 0.0398 | – | – | 0.0481 | 0.0349 | – | 0.0314 | 0.0482 | 0.038 | – | 0.03 | 0.0461 |
| K221V | 0.0474 | 0.0789 | 0.0609 | 0.0583 | 0.0889 | 0.0502 | 0.0535 | 0.0595 | – | – | – | – | 0.0603 | 0.0403 | – | 0.0581 | 0.0643 | – | 0.0477 |
| S4W | 0.0691 | 0.0507 | – | 0.067 | – | 0.059 | 0.0687 | 0.0658 | 0.0697 | 0.0625 | 0.0674 | 0.0527 | 0.0608 | 0.0664 | 0.0325 | 0.0613 | – | – | – |
| P222E | 0.0607 | – | 0.0631 | 0.0672 | 0.0667 | 0.0508 | 0.0596 | – | 0.0693 | – | 0.0624 | 0.0486 | 0.0673 | 0.0549 | 0.0618 | – | 0.057 | 0.0675 | 0.0654 |
| K230P | – | 0.0769 | 0.0702 | 0.0637 | 0.049 | 0.0577 | 0.0609 | 0.0643 | – | 0.0649 | – | 0.0533 | 0.0529 | – | 0.0471 | – | 0.0556 | – | – |
| K230F | – | 0.064 | 0.0694 | 0.0724 | 0.0616 | 0.0642 | 0.0645 | 0.0514 | 0.0608 | – | 0.0631 | – | 0.0714 | 0.066 | 0.0552 | 0.0611 | 0.0607 | 0.0532 | – |
| F41T | 0.0577 | 0.0665 | – | 0.106 | 0.0595 | 0.0547 | 0.0567 | 0.0509 | – | 0.0468 | – | – | 0.0586 | 0.0587 | 0.0549 | – | – | – | – |
| E231A | – | – | 0.0716 | 0.0817 | – | 0.0482 | 0.062 | 0.0581 | – | 0.0529 | 0.0591 | – | 0.0404 | – | – | 0.0504 | 0.0656 | 0.0643 | 0.0654 |
| E231Q | 0.0766 | 0.0641 | 0.0599 | 0.0407 | – | 0.0564 | 0.0639 | 0.0664 | 0.0495 | 0.062 | 0.0533 | – | – | 0.0569 | 0.0641 | – | 0.0597 | – | – |
| V210C | 0.0482 | 0.0499 | 0.0587 | 0.0725 | – | 0.0493 | 0.0591 | 0.0519 | – | 0.048 | 0.0577 | 0.0284 | 0.0575 | 0.0684 | 0.0589 | 0.0597 | 0.0568 | 0.0772 | 0.0588 |
